# Data reported in PubChem BioAssay AID624418 (National Center for Advancing Translational Sciences (NCATS), 2012).
# The campaign covered roughly 410,000 compounds. About 530 (0.13%) were called active. Inconclusive means that the source gave no clear call. Such entries were picked first, then a sample of the others. Calls come from the whole dose curve; as a rule, active = well fitted inhibition curve with a large enough effect; inconclusive = small, poorly fitted or top-dose-only effect, or another doubt; inactive = no such curve, though single readings can be large or run the other way. Where the call is inconclusive, the potency comes from a doubtful curve fit.
# Test: qHTS of GLP-1 Receptor Inverse Agonists: Cytotox Screen
# Conditions: HEK293 cAMP-luciferase reporter cells, luminescence, 24 h; activity change, negative = inhibition: at 38.3 µM (top of the series) unless noted
# In short: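 MLSMR compounds, 24 hr on cells at 37 deg C/5% CO2; luminescence after luciferase reagent (12 min RT). Inhibition counted as the undesired cytotoxic outcome.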
# % is set by controls: 0 for no effect and ±100 for the full control effect; potency is the fitted concentration of half-maximal effect.
Structure (SMILES),Potency,"activity change, negative = inhibition"
Cc1ccc(NS(=O)(=O)c2cc([N+](=O)[O-])ccc2NNC(=S)Nc2cccc(Cl)c2)c(C)c1,"inconclusive: 14.1 µM [inhibitor, partial curve, poor fit]",
COc1ccc(C(=O)C2CCCN(C/C=C/c3ccccc3OC)C2)c(OC)c1 (stereo unspecified),"inconclusive: 11.2 µM [inhibitor, partial curve, poor fit]",
Fc1ccc(CNc2ncnc3c2cnn3-c2ccccc2)cc1,"inconclusive: 12.6 µM [inhibitor, partial curve, poor fit]",
Cc1cccc(NC(=S)N/C(=N/S(=O)(=O)c2ccccc2)c2ccccc2)c1,"inconclusive: 28.2 µM [inhibitor, single point]",
COc1ccc(CCNc2c(C)c(C)nc3ncnn23)cc1,"inconclusive: 5.01 µM [inhibitor, full curve, poor fit]",
CCOc1ccccc1N1C(=O)CC(Sc2ncccc2C(=O)O)C1=O (stereo unspecified),,inactive: -2.74%
Cn1cc(C(=O)NCc2ccc(Cl)cc2)c(=O)c2cc(S(=O)(=O)N3CCCCCC3)ccc21,,inactive: -9.5%
COc1ccc(-c2cn(-c3ccc(OC)cc3)c3[n+]2-c2ccccc2CC3)cc1,"inconclusive: 3.16 µM [inhibitor, partial curve, poor fit]",
COc1ccc(C(=O)N2CCC(C(=O)O)CC2)c2ccccc12,"inconclusive: 28.2 µM [inhibitor, single point]",
CC1CCC(C(C)C)C(OC(=O)C[n+]2cc(-c3ccc(Cl)cc3)n3c2CCC3)C1 (stereo unspecified),"inconclusive: 12.6 µM [inhibitor, single point]",
Cc1cc(C)cc(NC(=O)CN(C)S(=O)(=O)c2ccc3[nH]c4c(c3c2)CCCC4)c1,,inactive: 6.44%
N#C/C(=C\c1ccc(-c2ccc(F)cc2F)o1)c1nc2ccccc2[nH]1,,inactive: 67.7%
Cc1ccc(C(=O)NN(C)c2nc3ccccc3nc2C(F)(F)F)cc1,"inconclusive: 1.78 µM [inhibitor, partial curve, poor fit]",
COc1ccc(CNCCC(c2ccc(OC)cc2)c2ccccc2OC)cc1 (stereo unspecified),"inconclusive: 14.1 µM [inhibitor, single point]",
CN(C)C(C)(C)C#CCCCCC#CC(C)(C)N(C)C,"inconclusive: 28.2 µM [inhibitor, single point]",
Cc1c(Br)c([N+](=O)[O-])nn1CC(=O)N1CCc2ccccc21,,inactive: 11.8%
S=C(Nc1ccccc1)Nc1nc2ccccc2n1CCOc1ccc(Cl)cc1,"inconclusive: 10 µM [inhibitor, partial curve, poor fit]",
COc1cccc(NC(=O)Nc2ccc3nsnc3c2)c1,"inconclusive: 31.6 µM [inhibitor, single point]",
O=C(c1ccc(Cl)c([N+](=O)[O-])c1)N1CCN(S(=O)(=O)c2ccc(Cl)cc2)CC1,,inactive: -9.27%
Cc1ccc(C2CC(c3cccs3)=NN2C(=O)CSC2=NN3CCCC(=O)N=C3S2)cc1 (stereo unspecified),"inconclusive: 3.98 µM [inhibitor, partial curve]",
COc1ccc(C(=O)N2CCn3c2nc2ccccc23)cc1,,inactive: 7.06%

Structure (SMILES),Potency,"activity change, negative = inhibition"
Cc1ccc(C(=O)CC(=O)COc2ccc(Cl)cc2C)cc1,"inconclusive: 28.2 µM [inhibitor, single point]",
O=C1C(=O)c2cccnc2-c2ncccc21,"inconclusive: 1.58 µM [inhibitor, full curve, poor fit]",
Cc1ccc2sc(N(CCCN(C)C)C(=O)CN3C(=O)c4ccccc4C3=O)nc2c1C,"inconclusive: 28.2 µM [inhibitor, single point]",
CC(C)(C)N/N=C/c1cc(Cl)cc([N+](=O)[O-])c1O,"inconclusive: 15.8 µM [inhibitor, partial curve, poor fit]",
O=C(Nc1ccc(Cl)c(Cl)c1)Nc1ccon1,"inconclusive: 10 µM [inhibitor, partial curve]",
Cc1c(C)n(Cc2ccccc2)c2ccc(C(=O)NCCc3ccccc3Cl)cc12,,inactive: 0.649%
C=C1CCN([C@H](C(=O)Nc2ccc(OC)cc2)C(C)C)S(=O)(=O)c2ccccc21,"inconclusive: 0.501 µM [inhibitor, full curve, poor fit]",
O=C(Nc1ccc2c(c1)N(C1CCCC1)C(=O)c1ccccc1S2)c1cccc(F)c1,,inactive: 6.56%
CC(=O)c1c(NC(=O)c2ccccc2)[nH]c(-c2ccccc2)nc1=S,"inconclusive: 10 µM [inhibitor, single point]",
CC(C)c1ccc2c(c1)C1(NN=C(c3ccccc3)S1)C(=O)N2 (stereo unspecified),"inconclusive: 5.01 µM [inhibitor, full curve, poor fit]",
COc1cc(NC(=O)c2cccs2)c(OC)cc1NC(=O)CCC(=O)Nc1ccc2ncccc2c1,"inconclusive: 12.6 µM [inhibitor, single point]",
CC(C)C[C@H](N)c1cn([C@@H](CCCCN)C(=O)N2CCNCC2)nn1,"inconclusive: 1 µM [inhibitor, full curve, poor fit]",
O=C(C1CCCN(S(=O)(=O)c2ccc(Br)s2)C1)N1CCN(c2ccc(F)cc2)CC1 (stereo unspecified),,inactive: 0.857%
CC(/C=N/NC(=O)c1cc(-c2ccc3ccccc3c2)n[nH]1)=C\c1ccco1,"inconclusive: 3.98 µM [inhibitor, partial curve]",
COCCn1cc(C(=O)N2CCCC(C)C2)c2c3ccccc3n(C)c2c1=O (stereo unspecified),,inactive: -23.8%
O=C(Nc1ccc2ccccc2c1)c1ccc(NS(=O)(=O)c2ccc(Br)s2)cc1,"inconclusive: 28.2 µM [inhibitor, single point]",
Cn1c(C=O)c(-c2ccc3cc[nH]c3c2)c2ccccc21,"inconclusive: 12.6 µM [inhibitor, single point]",
CCC1=NN(C(=O)c2ccccc2Br)C(O)(c2ccc(Br)cc2)C1 (stereo unspecified),"inconclusive: 14.1 µM [inhibitor, single point]",
CC1(c2ccccc2)CC(C)(C)N(C(=O)CSc2nnc(N)s2)c2ccccc21 (stereo unspecified),"inconclusive: 12.6 µM [inhibitor, single point]",
COCCCn1c(SCCc2ccccc2)nc2cc(OC)c(OC)cc2c1=N,"inconclusive: 28.2 µM [inhibitor, single point]",
